The values that follow come from PMC6919601, “Identification of Plasmodium dipeptidyl aminopeptidase allosteric inhibitors by high throughput screening” (PLoS ONE, 2019).

The whole screen tested about 110,000 compounds, of which about 230 (0.21%) showed an effect of 50% or more. The list shows a part of the results.
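Further: 30 min substrate incubation versus DMSO and 10 µM JCP410 controls.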

Chain of DPAP1 (Q8IIJ9 whole entry, looked up): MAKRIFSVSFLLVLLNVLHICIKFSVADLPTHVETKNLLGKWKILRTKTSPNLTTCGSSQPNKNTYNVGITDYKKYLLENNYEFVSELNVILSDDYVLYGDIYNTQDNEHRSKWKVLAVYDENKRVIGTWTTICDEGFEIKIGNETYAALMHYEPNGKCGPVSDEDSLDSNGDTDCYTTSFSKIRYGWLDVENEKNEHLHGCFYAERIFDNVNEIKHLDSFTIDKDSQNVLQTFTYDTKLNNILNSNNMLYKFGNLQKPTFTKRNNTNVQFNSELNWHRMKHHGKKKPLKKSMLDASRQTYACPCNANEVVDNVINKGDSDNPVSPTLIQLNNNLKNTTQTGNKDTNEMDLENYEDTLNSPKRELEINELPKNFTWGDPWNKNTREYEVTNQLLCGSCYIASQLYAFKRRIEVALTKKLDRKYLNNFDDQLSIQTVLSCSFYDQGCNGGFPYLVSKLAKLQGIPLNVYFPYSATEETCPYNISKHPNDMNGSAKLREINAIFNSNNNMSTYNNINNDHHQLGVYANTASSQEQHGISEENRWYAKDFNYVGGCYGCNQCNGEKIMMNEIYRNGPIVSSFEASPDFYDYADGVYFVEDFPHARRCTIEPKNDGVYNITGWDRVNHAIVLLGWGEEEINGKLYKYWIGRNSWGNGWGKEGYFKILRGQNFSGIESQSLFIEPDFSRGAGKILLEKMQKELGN

The assay has as its target DPAP1 (Plasmodium falciparum, UniProt Q8IIJ9). Put plainly: primary screen, percent inhibition; read by cleavage of a fluorogenic dipeptide substrate; higher = more effect of the substance. Details: species or system P. falciparum D10 trophozoite lysates; single well.
Turning to `FC(F)(F)c1ccc(-c2noc(-c3ccco3)n2)cc1`, the “% Inhibition @ 10 uM” value is listed as -7.96%.

Regarding `CCOC(=O)c1cc(-c2ccc(C)cc2)n(CC(=O)NCCC(C)C)c1C`, the “% Inhibition @ 10 uM” value is 1.72%.

Turning to `C#CC(C)(CC)NC(=O)Cc1ccc(Cl)cc1` (stereo not shown), the “% Inhibition @ 10 uM” value is reported as 1.03%. Then `CCSC1=NC2(CCN(S(=O)(=O)Cc3ccccc3)CC2)N=C1c1ccccc1`, with 2.07%. Regarding `COc1ccc(Br)cc1/C=c1\sc2ncnn2c1=O`, the “% Inhibition @ 10 uM” value is on record as 0.222%.

With `COc1ccc(CCNC(=O)c2cc3cccc4c3n2CC(C)S4)c(OC)c1` (stereo not shown), the “% Inhibition @ 10 uM” value is on record as 4.44%. As to `O=C(Cc1ccccc1)Nc1nnc(-c2ccc(F)cc2)s1`, the “% Inhibition @ 10 uM” value turned out to be 4.35%.

For the compound `O=C(NCCCN1CCOCC1)c1cc2c(s1)-c1ccc(Cl)cc1SC2`, the “% Inhibition @ 10 uM” value was -4.24%.

`CCC1(CO)COC(c2ccco2)OC1` (stereo not shown): the “% Inhibition @ 10 uM” value is 3.32%. For `COCCCNC(=O)c1ccc(CSc2nc3cccnc3n2Cc2cccc(C)c2)cc1` the value was 7.69%; for `O=C(c1ccc(C(=O)N2CCc3ccccc32)cc1)N1CCc2ccccc21`, -9.3%; for `CCOCCCNCc1ccc(N(C)C)cc1`, -3.26%. For `O=C1CC(N2CCCCC2)C(=O)N1c1ccccc1Cl` (stereo not shown) the value was -10.6%; for `Cn1cc(/C(Cc2ccccc2)=N/O)c2ccccc21`, 3.42%; for `Nc1nc(CN2CCN(c3ccc(F)cc3)CC2)nc(Nc2ccccc2)n1`, -0.884%. Turning to `C=CCc1cc(/C=C2/C(=N)N3OC(C)=CC3=NC2=O)cc(OC)c1O`, the “% Inhibition @ 10 uM” value stood at 0.317%.

Regarding `Cc1cccn2c(=O)c3cc(C(=O)NCc4ccccc4)c(=N)n(CCc4ccccc4)c3nc12`, the “% Inhibition @ 10 uM” value was -3.27%. Turning to `COc1ccc2cc3c(N)nn(C(=O)C4CCC(C(C)(C)C)CC4)c3nc2c1` (stereo not shown), the “% Inhibition @ 10 uM” value worked out at 4.15%. As for `C=CCn1c(SCC(=O)Nc2ccccc2)nc2sc3c(c2c1=O)CCC3`, the “% Inhibition @ 10 uM” value was -1.28%. On to `CCCC(=O)Nc1ccc(S(=O)(=O)Nc2c(C)cc(C)cc2C)cc1`, for which the “% Inhibition @ 10 uM” value is -3.39%. For the compound `CS(=O)(=O)c1ccc(S(=O)(=O)N2CCC(C(N)=O)(N3CCCCC3)CC2)cc1`, the “% Inhibition @ 10 uM” value is -3.49%. As for `C=CCn1c(SCC(=O)N2CCOCC2)nc(O)c(Cc2ccccc2)c1=O`, the “% Inhibition @ 10 uM” value came out at 0.726%. `COc1cc2nc3c(O)n(CCN4CCCCC4C)cnc-3c2cc1OC` (stereo not shown): the “% Inhibition @ 10 uM” value is recorded as -0.0235%.

For `CC(=O)C1=C(O)C(=O)N(c2cccc(Br)c2)C1c1ccccc1` (stereo not shown), the “% Inhibition @ 10 uM” value is given as -0.711%. Regarding `CCc1ccc(CN2CCN(C/C=C/c3ccccc3)CC2)cc1`, the “% Inhibition @ 10 uM” value is recorded as -0.0404%. Turning to `Cc1ccccc1CN1CCN(c2cccc(C(F)(F)F)c2)CC1`, the “% Inhibition @ 10 uM” value is listed as -0.294%. In the case of `COc1cc(OC)c(OC)cc1/C=C(/C#N)C(N)=S`, the “% Inhibition @ 10 uM” value is given as -4.65%. `COc1ccc(CN2CCN(Cc3csc(C)c3C)CC2)c(OC)c1OC`: the “% Inhibition @ 10 uM” value worked out at 3.1%. For `CN(c1ccccc1)S(=O)(=O)c1ccc(Cl)c(C(=O)Nc2ccccc2C(=O)O)c1`, the “% Inhibition @ 10 uM” value is 1.56%. In the case of `COCCN1C=C(C(=O)OC)C(c2cccc(C)c2)C(C(=O)OC)=C1`, the “% Inhibition @ 10 uM” value was -1.11%. Take `Cc1ccc(OCc2ccc(C(=O)N3CCCC3)o2)cc1C`: the “% Inhibition @ 10 uM” value came to 0.413%. For `CC1=C(C(=O)OCC(C)C)C(c2cccc(Cl)c2Cl)CC(=O)N1` (stereo not shown) the value was -0.0508%; for `COc1ccc2nc(N3CN(c4nc5ccc(OC)cc5s4)CN(C(C)C)C3)sc2c1`, -3.53%; for `O=S(=O)(c1cccc(C(F)(F)F)c1)N1CCCC(n2nnc3ccccc32)C1` (stereo not shown), 5.43%.

As to `COc1cccc(-c2nc3sc4c(c3c(=O)n2CC(=O)NC2CCCCC2)CCCC4)c1`, the “% Inhibition @ 10 uM” value worked out at 2.38%. `CC1CCC(N2CCN(c3ccc(F)cc3)CC2)CC1` (stereo not shown): the “% Inhibition @ 10 uM” value is -2.18%. As to `Cc1cc(C)n2c(SCc3cccs3)nnc2n1`, the “% Inhibition @ 10 uM” value is recorded as -1.43%. With `O=C(c1cccnc1)N1CCN(C/C=C/c2ccccc2)CC1`, the “% Inhibition @ 10 uM” value worked out at 1.87%. As to `CCOC(=O)C1=C(C)n2c(s/c(=C/c3cccc(O)c3)c2=O)=NC1c1ccc(O)c(OC)c1` (stereo not shown), the “% Inhibition @ 10 uM” value is recorded as 5.98%.

For the compound `Cc1ccc(S(=O)(=O)NCCCCC(NC(=O)OC(C)(C)C)C(=O)O)cc1` (stereo not shown), the “% Inhibition @ 10 uM” value was -4.27%. `COCCCNC(=O)CNC(=S)N(Cc1ccccc1)Cc1cccnc1`: the “% Inhibition @ 10 uM” value turned out to be 1.27%.

Take `C=CCc1ccccc1OCCSc1nc(-c2cccc(OC)c2)nc2cc(=O)[nH]n12`: the “% Inhibition @ 10 uM” value is 9.47%. Regarding `CC(=O)N(CN1C(=O)c2ccccc2C1=O)c1ccccc1Cl`, the “% Inhibition @ 10 uM” value is 0.687%.

Consider `O=C(Nc1cccc2ccccc12)c1cccnc1`, for which the “% Inhibition @ 10 uM” value was -8.49%. For `CC(=O)Nc1ccccc1NC(=O)Nc1ccc(Cl)cc1` the value was -1.22%; for `CCCC(=O)NC(=O)/C(C#N)=C/Nc1cccc(Br)c1`, 0.687%; for `COc1ccc(NC(=O)c2cc3ccccc3cc2O)c([N+](=O)[O-])c1`, -3.79%. On to `CCCC(C)c1c(O)n(CC)c(SC)nc1=O` (stereo not shown), for which the “% Inhibition @ 10 uM” value worked out at 0.0792%. As to `CCOC(=O)Cc1sc(N)c(C#N)c1C`, the “% Inhibition @ 10 uM” value was determined as 10.7%.
